These are yes or no findings as the source states them, for the method shown. In cells and extracts the contact can be indirect. Some binding calls cover weakened binding; strength is not graded here. For some assays here: Sequences can lack the tags named with a protein.
Legend:
sClec4e-Fc (mouse) [1] = target: T1, sClec4e-Fc (mouse) (UniProt Q9R0Q8); test: co-IP; Fc fusion protein (bait) and Flag-tagged protein (prey) overexpressed together in AT3 cells; lysate (50 mM Tris HCl pH 8.0, 300 mM NaCl, 1 mM MgCl2, 10 mM KCl, 0.5% NP-40, 10% glycerol) on protein A-Sepharose 2 h, 4 washes; Western blot; for self-association the Fc-fused and the Flag-fused copy of the same receptor
T1 sequence: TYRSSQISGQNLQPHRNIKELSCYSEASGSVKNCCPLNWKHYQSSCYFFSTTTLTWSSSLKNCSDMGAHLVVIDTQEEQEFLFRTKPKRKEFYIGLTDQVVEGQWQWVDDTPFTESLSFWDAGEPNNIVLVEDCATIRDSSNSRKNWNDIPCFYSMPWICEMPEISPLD

Chains of the proteins cited; added tags and fusions are not shown. Residues count along the entry.
UniProt Q62151, residues 23-340: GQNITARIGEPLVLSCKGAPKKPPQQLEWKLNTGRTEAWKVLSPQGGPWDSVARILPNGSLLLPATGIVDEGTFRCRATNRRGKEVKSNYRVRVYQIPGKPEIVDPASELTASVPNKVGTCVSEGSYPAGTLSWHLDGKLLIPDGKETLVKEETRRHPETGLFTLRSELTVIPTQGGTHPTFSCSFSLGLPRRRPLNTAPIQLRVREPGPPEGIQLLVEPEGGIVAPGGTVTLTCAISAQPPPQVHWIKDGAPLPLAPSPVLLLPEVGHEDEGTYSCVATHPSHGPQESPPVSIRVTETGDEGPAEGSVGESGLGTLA

sNKG2D-Flag (mouse) = sNKG2D-Flag (mouse) (UniProt O54709); test: as above
sNKG2D-Fc (mouse) = target: T2, sNKG2D-Fc (mouse) (UniProt O54709); test: as above
T2 sequence: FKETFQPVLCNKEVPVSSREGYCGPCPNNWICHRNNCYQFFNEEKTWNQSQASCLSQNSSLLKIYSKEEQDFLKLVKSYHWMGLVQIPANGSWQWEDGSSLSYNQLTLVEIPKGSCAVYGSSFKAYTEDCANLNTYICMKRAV

sDectin-1-Flag (mouse) = sDectin-1-Flag (mouse) (UniProt Q6QLQ4); test: as above
sClec4e-Fc (mouse) [2] = target: T1, sClec4e-Fc (mouse); test: co-IP; AT3 cells overexpressing tet-inducible Fc fusion protein (1 ug/mL doxycycline); lysate on protein A-Sepharose; Western blot with antibodies to endogenous Nidogen-1 or Hspg2
sDectin-1-Fc (mouse) [3] = target: T3, sDectin-1-Fc (mouse) (UniProt Q6QLQ4); test: as above
T3 sequence: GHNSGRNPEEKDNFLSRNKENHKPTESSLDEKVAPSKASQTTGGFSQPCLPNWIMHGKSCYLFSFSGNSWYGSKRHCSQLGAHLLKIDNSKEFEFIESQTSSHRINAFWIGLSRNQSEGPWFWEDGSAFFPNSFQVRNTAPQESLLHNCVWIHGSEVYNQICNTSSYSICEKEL

sRAGE-Fc [4] = target: sRAGE-Fc (UniProt Q62151); test: co-IP; LLC cells overexpressing tet-inducible sRAGE-Fc (1 ug/mL doxycycline); lysate on protein A-Sepharose; Western blot for endogenous Nidogen-1 and Hspg2
sDectin-1-Fc (mouse) [5] = target: T3, sDectin-1-Fc (mouse); test: co-IP; Fc fusion protein (bait) and Flag-tagged protein (prey) overexpressed together in AT3 cells; lysate (50 mM Tris HCl pH 8.0, 300 mM NaCl, 1 mM MgCl2, 10 mM KCl, 0.5% NP-40, 10% glycerol) on protein A-Sepharose 2 h, 4 washes; Western blot; for self-association the Fc-fused and the Flag-fused copy of the same receptor
sRAGE-Fc [6] = target: sRAGE-Fc (UniProt Q62151); test: as above

B1: sNKG2D-Flag (domain or fragment, UniProt O54709-1 90-232)
chain: FKETFQPVLCNKEVPVSSREGYCGPCPNNWICHRNNCYQFFNEEKTWNQSQASCLSQNSSLLKIYSKEEQDFLKLVKSYHWMGLVQIPANGSWQWEDGSSLSYNQLTLVEIPKGSCAVYGSSFKAYTEDCANLNTYICMKRAV
binding (sClec4e-Fc (mouse) [1]): binds
binding (sNKG2D-Flag (mouse)): binds

B2: sDectin-1-Flag (domain or fragment, UniProt Q6QLQ4 71-244)
chain: GHNSGRNPEEKDNFLSRNKENHKPTESSLDEKVAPSKASQTTGGFSQPCLPNWIMHGKSCYLFSFSGNSWYGSKRHCSQLGAHLLKIDNSKEFEFIESQTSSHRINAFWIGLSRNQSEGPWFWEDGSAFFPNSFQVRNTAPQESLLHNCVWIHGSEVYNQICNTSSYSICEKEL
binding (sNKG2D-Fc (mouse)): no binding
binding (sClec4e-Fc (mouse) [1]): binds
binding (sDectin-1-Flag (mouse)): no binding

B3: Nidogen-1 (endogenous) (protein, UniProt P10493 29-1245)
chain: LNRQELFPFGPGQGDLELEAGDDVVSPSLELIGELSFYDRTDITSVYVTTNGIIAMSEPPATEYHPGTFPPSFGSVAPFLADLDTTDGLGNVYYREDLSPFIIQMAAEYVQRGFPEVSFQPTSVVVVTWESVAPYGGPSSSPAEEGKRNTFQAVLASSNSSSYAIFLYPEDGLQFFTTFSKKDESQVPAVVGFSKGLVGFLWKSNGAYNIFANDRESIENLAKSSNAGHQGVWVFEIGSPATAKGVVSADVNLDLDDDGADYEDEDYDLVTSHLGLEDVATPSPSHSPRRGYPDPHNVPRILSPGYEATERPRGVPTERTRSFQLPAERFPQHHPQVIDVDEVEETGVVFSYNTGSQQTCANNRHQCSVHAECRDYATGFCCRCVANYTGNGRQCVAEGSPQRVNGKVKGRIFVGSSQVPVVFENTDLHSYVVMNHGRSYTAISTIPETVGYSLLPLAPIGGIIGWMFAVEQDGFKNGFSITGGEFTRQAEVTFLGHPGKLVLKQQFSGIDEHGHLTISTELEGRVPQIPYGASVHIEPYTELYHYSSSVITSSSTREYTVMEPDQDGAAPSHTHIYQWRQTITFQECAHDDARPALPSTQQLSVDSVFVLYNKEERILRYALSNSIGPVRDGSPDALQNPCYIGTHGCDSNAACRPGPGTQFTCECSIGFRGDGQTCYDIDECSEQPSRCGNHAVCNNLPGTFRCECVEGYHFSDRGTCVAAEDQRPINYCETGLHNCDIPQRAQCIYMGGSSYTCSCLPGFSGDGRACRDVDECQHSRCHPDAFCYNTPGSFTCQCKPGYQGDGFRCMPGEVSKTRCQLEREHILGAAGGADAQRPTLQGMFVPQCDEYGHYVPTQCHHSTGYCWCVDRDGRELEGSRTPPGMRPPCLSTVAPPIHQGPVVPTAVIPLPPGTHLLFAQTGKIERLPLERNTMKKTEAKAFLHIPAKVIIGLAFDCVDKVVYWTDISEPSIGRASLHGGEPTTIIRQDLGSPEGIALDHLGRTIFWTDSQLDRIEVAKMDGTQRRVLFDTGLVNPRGIVTDPVRGNLYWTDWNRDNPKIETSHMDGTNRRILAQDNLGLPNGLTFDAFSSQLCWVDAGTHRAECLNPAQPGRRKVLEGLQYPFAVTSYGKNLYYTDWKTNSVIAMDLAISKEMDTFHPHKQTRLYGITIALSQCPQGHNYCSVNNGGCTHLCLPTPGSRTCRCPDNTLGVDCIERK
binding (sClec4e-Fc (mouse) [2]): binds
binding (sDectin-1-Fc (mouse) [3]): binds
binding (sRAGE-Fc [4]): binds

B4: Nidogen-1-Flag (protein, UniProt P10493 29-1245)
chain: LNRQELFPFGPGQGDLELEAGDDVVSPSLELIGELSFYDRTDITSVYVTTNGIIAMSEPPATEYHPGTFPPSFGSVAPFLADLDTTDGLGNVYYREDLSPFIIQMAAEYVQRGFPEVSFQPTSVVVVTWESVAPYGGPSSSPAEEGKRNTFQAVLASSNSSSYAIFLYPEDGLQFFTTFSKKDESQVPAVVGFSKGLVGFLWKSNGAYNIFANDRESIENLAKSSNAGHQGVWVFEIGSPATAKGVVSADVNLDLDDDGADYEDEDYDLVTSHLGLEDVATPSPSHSPRRGYPDPHNVPRILSPGYEATERPRGVPTERTRSFQLPAERFPQHHPQVIDVDEVEETGVVFSYNTGSQQTCANNRHQCSVHAECRDYATGFCCRCVANYTGNGRQCVAEGSPQRVNGKVKGRIFVGSSQVPVVFENTDLHSYVVMNHGRSYTAISTIPETVGYSLLPLAPIGGIIGWMFAVEQDGFKNGFSITGGEFTRQAEVTFLGHPGKLVLKQQFSGIDEHGHLTISTELEGRVPQIPYGASVHIEPYTELYHYSSSVITSSSTREYTVMEPDQDGAAPSHTHIYQWRQTITFQECAHDDARPALPSTQQLSVDSVFVLYNKEERILRYALSNSIGPVRDGSPDALQNPCYIGTHGCDSNAACRPGPGTQFTCECSIGFRGDGQTCYDIDECSEQPSRCGNHAVCNNLPGTFRCECVEGYHFSDRGTCVAAEDQRPINYCETGLHNCDIPQRAQCIYMGGSSYTCSCLPGFSGDGRACRDVDECQHSRCHPDAFCYNTPGSFTCQCKPGYQGDGFRCMPGEVSKTRCQLEREHILGAAGGADAQRPTLQGMFVPQCDEYGHYVPTQCHHSTGYCWCVDRDGRELEGSRTPPGMRPPCLSTVAPPIHQGPVVPTAVIPLPPGTHLLFAQTGKIERLPLERNTMKKTEAKAFLHIPAKVIIGLAFDCVDKVVYWTDISEPSIGRASLHGGEPTTIIRQDLGSPEGIALDHLGRTIFWTDSQLDRIEVAKMDGTQRRVLFDTGLVNPRGIVTDPVRGNLYWTDWNRDNPKIETSHMDGTNRRILAQDNLGLPNGLTFDAFSSQLCWVDAGTHRAECLNPAQPGRRKVLEGLQYPFAVTSYGKNLYYTDWKTNSVIAMDLAISKEMDTFHPHKQTRLYGITIALSQCPQGHNYCSVNNGGCTHLCLPTPGSRTCRCPDNTLGVDCIERK
binding (sClec4e-Fc (mouse) [1]): binds
binding (sDectin-1-Fc (mouse) [5]): binds
binding (sRAGE-Fc [6]): binds
